Measurements reported in article PMC4336329 (PLoS ONE, 2015).
Screen size: about 310,000 compounds; about 14,000 (4.5%) showed an effect of 50% or more. The effect is printed as a negative number. The list shows a part of the results.

Target: human ether-à-go-go-related gene (hERG) potassium channel (human, UniProt Q12809)
Assay: primary screen, population patch clamp on CHO cells stably expressing hERG
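Further: peak tail current of the secondary pulse compared with the same well before compound.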

human ether-à-go-go-related gene (hERG) potassium channel, sequence (Q12809 whole entry, looked up): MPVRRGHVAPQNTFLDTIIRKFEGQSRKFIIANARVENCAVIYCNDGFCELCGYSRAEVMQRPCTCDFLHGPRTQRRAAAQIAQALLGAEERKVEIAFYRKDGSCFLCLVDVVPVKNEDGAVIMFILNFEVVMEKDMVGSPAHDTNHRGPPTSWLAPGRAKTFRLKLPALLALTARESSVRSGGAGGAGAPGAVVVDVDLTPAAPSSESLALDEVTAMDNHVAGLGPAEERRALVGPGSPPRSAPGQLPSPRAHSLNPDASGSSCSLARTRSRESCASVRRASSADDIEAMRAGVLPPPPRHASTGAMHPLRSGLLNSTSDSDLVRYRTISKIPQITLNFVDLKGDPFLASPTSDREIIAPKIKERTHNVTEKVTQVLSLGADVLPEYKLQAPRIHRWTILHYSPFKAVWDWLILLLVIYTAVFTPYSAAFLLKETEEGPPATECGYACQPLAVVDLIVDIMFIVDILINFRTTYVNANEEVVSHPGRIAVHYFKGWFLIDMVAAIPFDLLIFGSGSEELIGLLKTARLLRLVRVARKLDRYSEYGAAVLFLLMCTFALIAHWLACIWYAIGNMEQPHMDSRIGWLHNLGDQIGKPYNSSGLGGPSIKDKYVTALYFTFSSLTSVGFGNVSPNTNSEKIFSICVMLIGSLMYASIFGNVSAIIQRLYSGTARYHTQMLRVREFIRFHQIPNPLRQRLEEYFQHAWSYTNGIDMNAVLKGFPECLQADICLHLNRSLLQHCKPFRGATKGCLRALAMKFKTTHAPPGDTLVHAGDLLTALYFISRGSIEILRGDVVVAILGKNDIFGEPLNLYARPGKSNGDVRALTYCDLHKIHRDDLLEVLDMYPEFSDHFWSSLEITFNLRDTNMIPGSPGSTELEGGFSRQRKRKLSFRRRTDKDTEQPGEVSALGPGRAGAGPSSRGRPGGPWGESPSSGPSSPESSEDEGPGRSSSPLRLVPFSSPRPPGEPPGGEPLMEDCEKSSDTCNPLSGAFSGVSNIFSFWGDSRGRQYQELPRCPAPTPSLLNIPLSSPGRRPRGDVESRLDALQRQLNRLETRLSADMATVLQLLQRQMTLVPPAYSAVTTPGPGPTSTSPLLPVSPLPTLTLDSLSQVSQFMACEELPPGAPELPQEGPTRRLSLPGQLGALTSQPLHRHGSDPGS

| SMILES | hERG current change (%, negative = inhibition) at 10uM [%] |
| --- | --- |
| C/C(=N\NC(=O)c1cc(C(C)C)[nH]n1)c1ccncc1 | 23.6 |
| O=S(=O)(NCc1cccs1)c1cccc2cccnc12 | -32.8 |
| Clc1ncccc1OCc1ccccc1 | -11 |
| Cc1ccc(-c2csc(NC(=O)c3ccno3)n2)cc1 | 2.72 |
| O=C(NCc1n[nH]c(=S)n1-c1ccc(Br)cc1)c1ccc(S(=O)(=O)N2CCCCC2)cc1 | 0.455 |
| O=C(N/N=C/c1cnc2ccccc2n1)c1cccc(F)c1 | -13.8 |
| Cc1nnc2sc(SCc3ccccc3)nn2c1=O | 1.96 |
| CC(C)COC(=O)N1CCN(S(=O)(=O)c2ccc3c(c2)CCC3)CC1 | 5.93 |
| O=C(O)CN1C(=O)/C(=C\c2cc(Br)ccc2OCc2ccc([N+](=O)[O-])cc2)SC1=S | -19 |
| CCc1ccc(S(=O)(=O)c2cn(C)c3cc(OC)c(OC)cc3c2=O)cc1 | 8.93 |
| CCn1nc(C(=O)OCC(=O)N(CC(C)C)c2c(N)n(Cc3ccccc3)c(=O)[nH]c2=O)c2ccccc2c1=O | 10.3 |
| COc1c(N2CCN[C@H](C)C2)c(F)cc2c(=O)c(C(=O)O)cn(C3CC3)c12 | 10.5 |
| c1ccc(CNCc2ccc3c(c2)OCO3)nc1 | 11.2 |
| COc1ccc(CC(=O)Nc2ccc(-c3noc(-c4cccc(OC)c4)n3)cc2)cc1 | -6.11 |
| O=C(Nc1sc2c(c1C(=O)O)CCCC2)c1ccccc1Cl | 11.9 |
| N#CNC(=Nc1cccc(F)c1)SCc1ccccc1F | -3.48 |
| O=C(O)CSc1nc(-c2cccs2)cc(C(F)(F)F)n1 | 22.4 |
| O=C(NCCC1=CCCCC1)C1CCC(CNc2nc(=S)[nH]c3ccccc23)CC1 (stereo not drawn) | 20.2 |
| COn1c(=O)c(-c2ccccc2)[n+]([O-])c2ccccc21 | 12.4 |

| SMILES | hERG current change (%, negative = inhibition) at 10uM [%] |
| --- | --- |
| CCc1ccc(-n2cnc3cc(C(=O)NCC(OC)OC)ccc32)cc1 | -22.2 |
| O=C(NCCOc1ccc(Cl)cc1)c1ccc2ccccc2n1 | 0.176 |
| O=C(c1ccc(Br)cc1)N1CCCC1 | 4.8 |
| S=C(NC1CCCCC1)N1CCOCCOCCN(C(=S)NC2CCCCC2)CCOCCOCC1 | -0.524 |
| O=C(CN1CCN(Cc2ccccc2)CC1)N1CCN(c2ccccc2)CC1 | -13.4 |
| OCC1(Cc2ccccc2)CCN(Cc2cc3ccccc3o2)CC1 | -51.7 |
| COC(=O)C1=C(CS(=O)(=O)c2ccccc2)NC(=O)NC1c1ccc(OC)c(OC)c1 (stereo not drawn) | 19 |
| CCC1(c2ccccc2)NC(=O)N(CC(=O)N(CC(=O)Nc2ccccc2C(F)(F)F)Cc2ccco2)C1=O (stereo not drawn) | -6.07 |
| CCCNC(=O)CNC(=S)N(Cc1cc(OC)c(OC)c(OC)c1)C1CCCC1 | -3.77 |
| O=C(/C=C/c1cccs1)NCc1cccnc1 | 3.25 |
| COCCn1c(SCc2cccnc2)nnc1-c1c[nH]c2ccccc12 | -25.8 |
| Cc1ccc(C)c(OCc2cc(C(=O)N3CC[C@@H]4CCCC[C@H]4C3)no2)c1 | 1.43 |
| O=C(N/N=C/c1ccc(-c2ccccc2[N+](=O)[O-])o1)c1cncc(Br)c1 | -6.97 |
| COc1ccc(C(=O)c2c(-c3cccc(C)c3)oc3ccc(N4CCOCC4)cc23)cn1 | 14.6 |
| CC1CCCCC1NS(=O)(=O)c1ccc(S(=O)(=O)N2CCCC2)cc1 (stereo not drawn) | -24 |
| COc1cccc(CN2CC(C(=O)N(C)Cc3ccnc4ccccc34)CCC2=O)c1 (stereo not drawn) | -10.2 |
| COc1ccccc1OCCCCCCN1CCOCC1.O=C(O)C(=O)O | 0.0271 |
| O=C(NCCC1=CCCCC1)c1ccc2c(c1)N(Cc1ccccc1)C(=O)CS2 | -12.2 |
| Cc1cc(C(=O)N2CCCC(N3CCN(c4cccc(Cl)c4)CC3)C2)nc(C)n1 (stereo not drawn) | -19.8 |

| SMILES | hERG current change (%, negative = inhibition) at 10uM [%] |
| --- | --- |
| O=C(NN1C(=O)C2C3C=CC(O3)C2C1=O)c1cccc(Br)c1 (stereo not drawn) | 20.5 |
| COC(=O)n1c(SC)nc2ccccc21 | 10.9 |
| Cl.NCCNC(=O)c1c(O)c2cccc3c2n(c1=O)CCC3 | 3.17 |
| COc1ccc(-c2cc(C(=O)NC3CCCC3)no2)cc1OC | -10.2 |
| O=C(CNC(=O)C1CCCCC1)Nc1cc(Cl)cc(Cl)c1 | 6.49 |
| COc1ccc(Nc2nc(C(=O)N3CCc4ccccc4C3)cs2)cc1 | 7.03 |
| CC(C)CNC1CCS(=O)(=O)C1.Cl (stereo not drawn) | 9.26 |
| COc1ccc([N+](=O)[O-])cc1NC(=O)COC(=O)c1ccc(O)cc1 | 13.1 |
| Cc1cc(C)n(-c2ccc([N+](=O)[O-])cc2-c2nn[nH]n2)n1 | 9.88 |
| CCN(CC)C(=O)CSC1=Nc2ccccc2C2=NC(c3ccccc3)C(=O)N12 (stereo not drawn) | -46.4 |
| Cc1c(N2C(=O)/C(=C\C3CC=CCC3)SC2=S)c(=O)n(-c2ccccc2)n1C (stereo not drawn) | -6.68 |
| CN(C)CCOC(c1ccc(Cl)cc1)c1ccccn1.O=C(O)/C=C/C(=O)O (stereo not drawn) | -43 |
| COc1ccc(C(=O)NC(=S)NCc2ccco2)cc1OC | -19.2 |
| CCC1CCc2c(c3ccccc3[nH]c2=O)O1 (stereo not drawn) | 1.25 |
| CN(C)C=O.Oc1cccc2c(NC(=S)Nc3ccc(OC(F)F)cc3)cccc12 | -49.5 |
| COc1ccc(CNC2CCCCC2)cc1 | -4.88 |
| O=C(CSc1ccc(-c2ccccc2)nn1)N1CCCCC1 | 6.08 |
| COC(=O)c1c(-c2ccc(OC)c(OC)c2)csc1N | 12.1 |
| Cc1ccnc(NC(=O)c2ccc(NC(=O)CC3SC(N4CCCC4)=NC3=O)cc2)c1 (stereo not drawn) | 3.47 |
